Data taken from a compilation of properties of binary mixtures (doi:10.1007/s10953-005-9002-0).
Some of these densities may be calculated back from excess volumes.

Test: xn = mol fraction of the nth substance listed
Conditions: 298.15 K, 101 kPa

Structure (SMILES): CCCCCCCCOS(=O)(=O)[O-].CCCC[n+]1ccn(C)c1 + CCCCCCO
- mass density (x2 = 0.2503): 1038.8 kg/m3
- mass density (x2 = 0.3348): 1026.4 kg/m3
- mass density (x2 = 0.4352): 1009.5 kg/m3
- mass density (x2 = 0.5425): 988.4 kg/m3
- mass density (x2 = 0.6343): 966.9 kg/m3
- mass density (x2 = 0.74): 936.5 kg/m3
- mass density (x2 = 0.9001): 873.1 kg/m3

Structure (SMILES): COS(=O)(=O)[O-].Cn1cc[n+](C)c1 + CCO
- mass density (x2 = 0.1546): 1303.2 kg/m3
- mass density (x2 = 0.2577): 1278.2 kg/m3
- mass density (x2 = 0.3537): 1249.3 kg/m3
- mass density (x2 = 0.4987): 1192.5 kg/m3
- mass density (x2 = 0.5583): 1172.9 kg/m3
- mass density (x2 = 0.6463): 1126.3 kg/m3
- mass density (x2 = 0.7622): 1041.9 kg/m3
- mass density (x2 = 0.8475): 975.9 kg/m3
- mass density (x2 = 0.9489): 865.8 kg/m3

Structure (SMILES): COS(=O)(=O)[O-].Cn1cc[n+](C)c1 + O
- mass density (x2 = 0.0624): 1326.3 kg/m3
- mass density (x2 = 0.1604): 1322.1 kg/m3
- mass density (x2 = 0.2705): 1316.1 kg/m3
- mass density (x2 = 0.3586): 1309.9 kg/m3
- mass density (x2 = 0.4629): 1300.4 kg/m3
- mass density (x2 = 0.5766): 1290.3 kg/m3
- mass density (x2 = 0.6502): 1272.5 kg/m3
- mass density (x2 = 0.7723): 1237.2 kg/m3
- mass density (x2 = 0.9139): 1114.3 kg/m3
- mass density (x2 = 0.9376): 1114.5 kg/m3
- mass density (x2 = 0.9794): 1044.3 kg/m3

Structure (SMILES): CCCC[n+]1ccn(C)c1.COS(=O)(=O)[O-] + CO
- mass density (x2 = 0.0692): 1202.9 kg/m3
- mass density (x2 = 0.1777): 1192.9 kg/m3
- mass density (x2 = 0.2629): 1182.6 kg/m3
- mass density (x2 = 0.3668): 1169.5 kg/m3
- mass density (x2 = 0.4635): 1153.2 kg/m3
- mass density (x2 = 0.5662): 1130.2 kg/m3
- mass density (x2 = 0.6573): 1102.5 kg/m3
- mass density (x2 = 0.7654): 1054.8 kg/m3
- mass density (x2 = 0.845): 1002.8 kg/m3

Structure (SMILES): CCCC[n+]1ccn(C)c1.COS(=O)(=O)[O-] + CCCCCCCCO
- mass density (x2 = 0.0395): 1200.1 kg/m3
- mass density (x2 = 0.1421): 1167.5 kg/m3
- mass density (x2 = 0.2358): 1136.4 kg/m3
- mass density (x2 = 0.3345): 1102 kg/m3
- mass density (x2 = 0.4344): 1065.9 kg/m3
- mass density (x2 = 0.5442): 1024 kg/m3
- mass density (x2 = 0.6461): 983.2 kg/m3
- mass density (x2 = 0.7249): 950.2 kg/m3
- mass density (x2 = 0.9227): 861.9 kg/m3

Structure (SMILES): CCCCCCCCOS(=O)(=O)[O-].CCCC[n+]1ccn(C)c1 + CCCCCCCCO
- mass density (x2 = 0.0492): 1063.6 kg/m3
- mass density (x2 = 0.1546): 1048.2 kg/m3
- mass density (x2 = 0.2584): 1031.9 kg/m3
- mass density (x2 = 0.4542): 996.1 kg/m3
- mass density (x2 = 0.5476): 976.2 kg/m3

Structure (SMILES): CCCCCCCCOS(=O)(=O)[O-].CCCC[n+]1ccn(C)c1 + CO
- mass density (x1 = 0.0088): 812.3 kg/m3
- mass density (x2 = 0.092): 1065.5 kg/m3
- mass density (x2 = 0.2588): 1059.3 kg/m3
- mass density (x2 = 0.3544): 1054.3 kg/m3
- mass density (x2 = 0.4665): 1045.9 kg/m3
- mass density (x2 = 0.5963): 1032.1 kg/m3
- mass density (x2 = 0.6915): 1015.7 kg/m3
- mass density (x2 = 0.8971): 933.4 kg/m3

Structure (SMILES): CCCC[n+]1ccn(C)c1.COS(=O)(=O)[O-] + CCCCO
- mass density (x2 = 0.0378): 1205.8 kg/m3
- mass density (x2 = 0.1375): 1186.4 kg/m3
- mass density (x2 = 0.2365): 1164.4 kg/m3
- mass density (x2 = 0.3337): 1139.9 kg/m3
- mass density (x2 = 0.4397): 1109.1 kg/m3
- mass density (x2 = 0.5634): 1066.3 kg/m3
- mass density (x2 = 0.6359): 1036.9 kg/m3
- mass density (x2 = 0.7317): 992.1 kg/m3
- mass density (x2 = 0.8419): 929.3 kg/m3

Structure (SMILES): CCCC[n+]1ccn(C)c1.COS(=O)(=O)[O-] + O
- mass density (x2 = 0.0217): 1208.8 kg/m3
- mass density (x2 = 0.1385): 1206.5 kg/m3
- mass density (x2 = 0.4356): 1197.9 kg/m3
- mass density (x2 = 0.5428): 1192.3 kg/m3
- mass density (x2 = 0.7338): 1172.8 kg/m3
- mass density (x2 = 0.8577): 1140.9 kg/m3
- mass density (x2 = 0.9502): 1079.4 kg/m3

Structure (SMILES): CCCCCCCCOS(=O)(=O)[O-].CCCC[n+]1ccn(C)c1 + CCCCCCCCCCO
- mass density (x2 = 0.2496): 1025.9 kg/m3
- mass density (x2 = 0.3414): 1008.3 kg/m3
- mass density (x2 = 0.4568): 984.6 kg/m3
- mass density (x2 = 0.665): 936.5 kg/m3
- mass density (x2 = 0.7454): 915.2 kg/m3
- mass density (x2 = 0.9373): 852.6 kg/m3

Structure (SMILES): CCCCCCCCOS(=O)(=O)[O-].CCCC[n+]1ccn(C)c1 + CCCCO
- mass density (x2 = 0.1676): 1053.8 kg/m3
- mass density (x2 = 0.2741): 1042.8 kg/m3
- mass density (x2 = 0.3377): 1035.1 kg/m3
- mass density (x2 = 0.4389): 1020.8 kg/m3
- mass density (x2 = 0.5712): 997 kg/m3
- mass density (x2 = 0.6553): 977.5 kg/m3
- mass density (x2 = 0.8803): 893.5 kg/m3
- mass density (x2 = 0.9202): 870.2 kg/m3

Structure (SMILES): CCCC[n+]1ccn(C)c1.COS(=O)(=O)[O-] + CCCCCCCCCCO
- mass density (x2 = 0.0431): 1196.6 kg/m3
- mass density (x2 = 0.3357): 1087.2 kg/m3
- mass density (x2 = 0.4521): 1043.1 kg/m3
- mass density (x2 = 0.5434): 1008 kg/m3
- mass density (x2 = 0.8526): 887.5 kg/m3
- mass density (x2 = 0.9397): 852.8 kg/m3

Structure (SMILES): COS(=O)(=O)[O-].Cn1cc[n+](C)c1 + CO
- mass density (x2 = 0.0802): 1318.3 kg/m3
- mass density (x2 = 0.1837): 1302 kg/m3
- mass density (x2 = 0.2935): 1282.5 kg/m3
- mass density (x2 = 0.5031): 1229.3 kg/m3
- mass density (x2 = 0.593): 1197.8 kg/m3
- mass density (x2 = 0.6949): 1148.9 kg/m3
- mass density (x2 = 0.8712): 1005.1 kg/m3
- mass density (x2 = 0.934): 919.8 kg/m3

Structure (SMILES): CCCC[n+]1ccn(C)c1.COS(=O)(=O)[O-] + CCO
- mass density (x2 = 0.1594): 1193.5 kg/m3
- mass density (x2 = 0.3597): 1158.8 kg/m3
- mass density (x2 = 0.4371): 1141.8 kg/m3
- mass density (x2 = 0.5412): 1112.9 kg/m3
- mass density (x2 = 0.6552): 1071.6 kg/m3
- mass density (x2 = 0.7651): 1016.8 kg/m3
- mass density (x2 = 0.8779): 935.1 kg/m3
- mass density (x2 = 0.9287): 884.7 kg/m3

Structure (SMILES): COS(=O)(=O)[O-].Cn1cc[n+](C)c1 + CCCCO
- mass density (x2 = 0.0302): 1325.3 kg/m3
- mass density (x2 = 0.2341): 1259.2 kg/m3
- mass density (x2 = 0.3366): 1218.2 kg/m3
- mass density (x2 = 0.438): 1174.2 kg/m3
- mass density (x2 = 0.4897): 1151.1 kg/m3
- mass density (x2 = 0.5424): 1122.8 kg/m3
- mass density (x2 = 0.6551): 1060.7 kg/m3
- mass density (x2 = 0.7571): 997.5 kg/m3
- mass density (x2 = 0.8272): 948.9 kg/m3
- mass density (x2 = 0.9417): 860.9 kg/m3

Structure (SMILES): CCCC[n+]1ccn(C)c1.COS(=O)(=O)[O-] + CCCCCCO
- mass density (x2 = 0.0286): 1202 kg/m3
- mass density (x2 = 0.1431): 1172.5 kg/m3
- mass density (x2 = 0.2515): 1141.9 kg/m3
- mass density (x2 = 0.3299): 1117.9 kg/m3
- mass density (x2 = 0.4374): 1082.2 kg/m3
- mass density (x2 = 0.5401): 1044.5 kg/m3
- mass density (x2 = 0.6387): 1004.6 kg/m3
- mass density (x2 = 0.7298): 964 kg/m3
- mass density (x2 = 0.8247): 917.4 kg/m3
